Common to all, as to assay: two-hybrid; targeted yeast two-hybrid in yeast strain L40ccU3; bait in pBTM116-GW-D9, prey in pACT2-GW; growth of four colonies on SDIV lacking tryptophan, leucine, histidine and uracil with 1 mM 3-AT; 28 °C, 3-6 days
In experiment [1] the target is AtAHL22 (Arabidopsis thaliana) (UniProt O22130).
Experiment [2] concerns the target AtAHL29 (Arabidopsis thaliana) (UniProt Q9C9K7).
For experiment [3], the target named is T1, AT-HOOK MOTIF CONTAINING NUCLEAR LOCALIZED #20 (AtAHL20) (Arabidopsis thaliana) (UniProt Q8GWQ2).
T1 sequence: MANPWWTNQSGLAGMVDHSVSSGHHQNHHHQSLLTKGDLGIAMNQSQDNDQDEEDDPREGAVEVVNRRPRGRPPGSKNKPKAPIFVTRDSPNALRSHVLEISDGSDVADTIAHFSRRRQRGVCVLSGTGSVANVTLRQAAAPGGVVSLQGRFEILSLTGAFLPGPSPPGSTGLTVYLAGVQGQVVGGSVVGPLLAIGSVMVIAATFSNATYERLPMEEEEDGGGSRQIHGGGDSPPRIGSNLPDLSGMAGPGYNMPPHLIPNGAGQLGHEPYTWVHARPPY

Amino acid sequences for entries named in this document (tags omitted).
UniProt O22130: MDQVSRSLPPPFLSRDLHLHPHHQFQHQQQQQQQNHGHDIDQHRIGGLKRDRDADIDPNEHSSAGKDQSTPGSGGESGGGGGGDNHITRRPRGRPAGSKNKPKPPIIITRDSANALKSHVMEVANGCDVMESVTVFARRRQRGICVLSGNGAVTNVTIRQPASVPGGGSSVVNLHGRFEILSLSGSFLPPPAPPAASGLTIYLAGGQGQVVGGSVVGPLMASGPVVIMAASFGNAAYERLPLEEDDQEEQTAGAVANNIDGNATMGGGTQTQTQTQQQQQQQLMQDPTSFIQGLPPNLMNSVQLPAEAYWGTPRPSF
UniProt Q9C9K7: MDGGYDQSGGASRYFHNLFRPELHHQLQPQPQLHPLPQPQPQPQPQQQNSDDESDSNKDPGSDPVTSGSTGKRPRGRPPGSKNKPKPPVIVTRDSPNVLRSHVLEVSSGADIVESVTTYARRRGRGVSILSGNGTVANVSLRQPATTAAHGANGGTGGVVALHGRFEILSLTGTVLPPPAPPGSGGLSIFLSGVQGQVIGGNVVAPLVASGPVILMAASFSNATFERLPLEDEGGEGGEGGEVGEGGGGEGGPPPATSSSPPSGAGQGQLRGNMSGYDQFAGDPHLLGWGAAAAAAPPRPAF

Experiment [4] addresses T2, AtAHL6 (Arabidopsis thaliana) (UniProt Q9LVB0).
T2 sequence: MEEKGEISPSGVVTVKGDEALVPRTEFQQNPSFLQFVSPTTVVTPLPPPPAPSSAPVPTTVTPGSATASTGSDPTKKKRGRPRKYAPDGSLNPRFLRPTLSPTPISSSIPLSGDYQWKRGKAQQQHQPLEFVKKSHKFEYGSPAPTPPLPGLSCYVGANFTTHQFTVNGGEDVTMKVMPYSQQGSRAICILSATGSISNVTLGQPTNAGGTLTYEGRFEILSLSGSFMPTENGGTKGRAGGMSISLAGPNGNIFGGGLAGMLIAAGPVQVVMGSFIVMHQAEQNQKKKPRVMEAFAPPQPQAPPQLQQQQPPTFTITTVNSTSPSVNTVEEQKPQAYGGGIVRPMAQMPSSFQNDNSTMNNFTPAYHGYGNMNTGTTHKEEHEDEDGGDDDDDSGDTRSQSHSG

In experiment [5] the target is AtAHL19 (Arabidopsis thaliana) (UniProt Q9SR17).

These are yes or no findings as the source states them, for the method shown. Some binding calls cover weakened binding; strength is not graded here.

B1: AT-HOOK MOTIF CONTAINING NUCLEAR LOCALIZED #20 (AtAHL20) (protein, UniProt Q8GWQ2 1-281)
chain: T1 sequence
Turning to B1, the binding entry in experiment [1] is “binds”; in experiment [2], “binds”; in experiment [3], “binds”; in experiment [4], “no binding”.

B2: AtAHL6 (protein, UniProt Q9LVB0 1-404)
chain: T2 sequence
For the molecule B2, the binding result in experiment [4] is listed as “binds”.

B3: AtAHL19 (protein, UniProt Q9SR17 1-315)
chain: MANPWWTGQVNLSGLETTPPGSSQLKKPDLHISMNMAMDSGHNNHHHHQEVDNNNNDDDRDNLSGDDHEPREGAVEAPTRRPRGRPAGSKNKPKPPIFVTRDSPNALKSHVMEIASGTDVIETLATFARRRQRGICILSGNGTVANVTLRQPSTAAVAAAPGGAAVLALQGRFEILSLTGSFLPGPAPPGSTGLTIYLAGGQGQVVGGSVVGPLMAAGPVMLIAATFSNATYERLPLEEEEAAERGGGGGSGGVVPGQLGGGGSPLSSGAGGGDGNQGLPVYNMPGNLVSNGGSGGGGQMSGQEAYGWAQARSGF
On to B3, for which the binding result in experiment [2], in experiment [5] and in experiment [3] was “binds” throughout.

The values above are taken from article PMC7731500.
